The campaign covered roughly 310,000 compounds. About 2,200 (0.71%) showed an effect of 50% or more. Effects have a minus sign here. The list shows a part of the results.
target: human ether-à-go-go-related gene (hERG) potassium channel (human, UniProt Q12809); test: primary screen, population patch clamp on CHO cells stably expressing hERG
Sequence (Q12809 whole entry, looked up): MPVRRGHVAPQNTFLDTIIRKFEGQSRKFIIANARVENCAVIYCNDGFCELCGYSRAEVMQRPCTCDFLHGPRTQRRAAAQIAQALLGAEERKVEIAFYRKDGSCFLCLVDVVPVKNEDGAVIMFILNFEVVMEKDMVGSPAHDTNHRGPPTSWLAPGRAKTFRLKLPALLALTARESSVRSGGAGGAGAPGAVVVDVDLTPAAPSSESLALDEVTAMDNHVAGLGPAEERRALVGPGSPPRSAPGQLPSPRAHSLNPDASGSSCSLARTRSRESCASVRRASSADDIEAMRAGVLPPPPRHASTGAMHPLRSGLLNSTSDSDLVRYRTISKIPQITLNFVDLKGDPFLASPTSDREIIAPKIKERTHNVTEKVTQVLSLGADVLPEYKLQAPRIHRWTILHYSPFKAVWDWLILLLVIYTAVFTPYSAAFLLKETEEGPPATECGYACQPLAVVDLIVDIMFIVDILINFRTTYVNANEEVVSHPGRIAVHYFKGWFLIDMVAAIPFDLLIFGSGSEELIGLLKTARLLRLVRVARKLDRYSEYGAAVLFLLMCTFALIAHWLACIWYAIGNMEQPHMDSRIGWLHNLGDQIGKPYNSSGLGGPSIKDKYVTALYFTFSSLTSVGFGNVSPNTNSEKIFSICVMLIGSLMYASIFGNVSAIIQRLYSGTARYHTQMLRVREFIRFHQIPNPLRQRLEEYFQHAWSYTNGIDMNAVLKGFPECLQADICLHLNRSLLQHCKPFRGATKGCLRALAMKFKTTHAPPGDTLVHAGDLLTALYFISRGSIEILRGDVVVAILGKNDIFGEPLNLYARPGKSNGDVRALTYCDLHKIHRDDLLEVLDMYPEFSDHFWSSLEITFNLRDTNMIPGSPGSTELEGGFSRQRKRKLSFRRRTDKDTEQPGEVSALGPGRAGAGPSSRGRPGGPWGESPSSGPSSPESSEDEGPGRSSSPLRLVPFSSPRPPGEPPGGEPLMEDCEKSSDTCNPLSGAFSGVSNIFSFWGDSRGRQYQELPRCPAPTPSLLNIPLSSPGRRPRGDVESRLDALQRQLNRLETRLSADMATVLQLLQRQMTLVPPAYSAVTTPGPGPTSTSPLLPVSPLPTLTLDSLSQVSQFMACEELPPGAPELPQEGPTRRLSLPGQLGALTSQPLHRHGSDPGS

Compound	hERG current change (%, negative = inhibition) at 1uM
O=C(CCn1c(=O)oc2ccccc21)NCc1ccc2c(c1)OCO2	8.18%
Cc1ccc(-c2csc3ncnc(Nc4ccc(N5CCOCC5)cc4)c23)cc1.Cl	8.54%
Cc1ccc(-c2nc(SCC(=O)NCC3CCCO3)c(-c3ccc(C)cc3)[nH]2)cc1 (centres unmarked)	20.1%
Cc1ccc(S(=O)(=O)N2CCCC(C(=O)NCc3ccccn3)C2)cc1 (centres unmarked)	6.86%
O=C(C1=C(O)C(=O)N(CCN2CCOCC2)C1c1cccnc1)c1cc2ccccc2o1 (centres unmarked)	5.37%
CC(=O)Nc1ccc(C(=O)N2CCN(C(=O)c3ccco3)CC2)cc1	5.59%
O=c1c2ccc(Cl)cc2[nH]c(=S)n1CCC1=CCCCC1	13.8%
CCOc1cc(C(=O)O)cc(Cl)c1OC	15.4%
CCOC(=O)N1CCN(c2c(NCCCN3CCCC(C)C3)c(=O)c2=O)CC1 (centres unmarked)	7.26%
NC(=O)C1CCN(c2cc(Cl)nc(N)n2)CC1	15.1%
CNC(=O)C(=O)Nc1cc2c3c(c1)CCN3C(=O)CC2	30.1%
Cc1ccc(SCCC(=O)Nc2c(C)n(C)n(-c3ccccc3)c2=O)cc1	11.1%
CCCC(=O)NC(=S)Nc1ccccc1F	15.2%
CCOc1ccc(CCNC(=O)CCCn2nc(C)c3c(C)n(-c4ccccc4)nc3c2=O)cc1	12.2%
Cc1cccc(NC(=O)CNC(=O)CN2C(=O)NC3(CCCc4ccccc43)C2=O)c1C (centres unmarked)	14.1%
COc1cc2c(cc1OC)C(C(=O)N1CCN(c3ccccn3)CC1)C(c1cccs1)N(C)C2=O (centres unmarked)	-5.59%
CC(C)(C)C(=O)Nc1cc2c3c(c1)CCC(=O)N3CCC2	13.2%
CNC(=O)COc1ccc(Cl)c2cccnc12	19.6%
CCS(=O)(=O)c1ccc(O)c(NC(=O)Nc2cccc3ccccc23)c1	9.44%

Compound	hERG current change (%, negative = inhibition) at 1uM
CCCCOc1ccc(CN(C)c2ncnc(N)n2)cc1	-1.16%
O=C(c1noc2c1CSc1ccccc1-2)N1CCN(c2ccc(Cl)cc2)CC1	14.1%
CCc1ccc(S(=O)(=O)Nc2cccc(C3OCCCO3)c2)cc1	12.4%
CCN(CC)S(=O)(=O)c1cc(NS(=O)(=O)c2cccc(C(=O)O)c2)ccc1C	11.8%
COc1ccc(Cl)cc1NC(=O)COC(=O)c1c(-c2ccccc2)noc1C	-2.57%
Cc1ccc(S(=O)(=O)N[C@@H](Cc2ccccc2)C(=O)CCl)cc1	-1.13%
CC1CN(c2cc(=O)n(-c3cccc(Br)c3)c(=O)[nH]2)CC(C)O1 (centres unmarked)	10.5%
Cc1ccc([N+](=O)[O-])cc1S(=O)(=O)n1ccnc1C	20.4%
Cc1ccc(NC(=O)CN(C)CC(=O)N(C)Cc2ccccc2)cc1	-17.2%
Cn1nc(-c2ccccc2)cc1NC(=O)Nc1ccccc1F	6.83%
O=C(O)C1C2C=CC(C2)C1C(=O)Nc1cccc(C(F)(F)F)c1 (centres unmarked)	10.6%
COc1ccccc1CNC(=O)C1CCCN(S(=O)(=O)c2c(C)[nH]c(=O)[nH]c2=O)C1 (centres unmarked)	13.2%
N#Cc1ccc(CN(c2ccncc2)S(=O)(=O)c2ccccc2)cc1	13.1%
Cc1noc(C)c1C(=O)OCC(=O)Nc1cc(S(=O)(=O)N2CCOCC2)ccc1Cl	-14.2%
Nc1nc(SCC(=O)Nc2ccc([N+](=O)[O-])cc2)n[nH]1	-0.763%
CCOC(=O)c1nn(-c2ccc(C)cc2)c(=O)cc1OCC(=O)N1CCN(c2ccccc2)CC1	11.5%
COc1ccc(C(=O)N/C(=C\c2ccccc2)C(=O)Nc2ccc(C(=O)O)cc2)cc1	13.4%
CCN1CCN(c2sc(S(C)(=O)=O)nc2S(=O)(=O)c2ccc(C)cc2)CC1	9.75%
CCOC(=O)c1cc(-c2cccs2)nc2c1c(C)nn2-c1ccccn1	9.39%

Compound	hERG current change (%, negative = inhibition) at 1uM
O=C(CSc1ccccc1)Nc1ccc(NC(=O)c2ccco2)cc1	6.49%
CCN(CCCNC(=O)CC1Oc2ccc(C)cc2NC1=O)Cc1ccccc1 (centres unmarked)	-31%
O=[N+]([O-])c1ccc(N2CCN(Cc3ccncc3)CC2)cc1	-44.5%
O=C(c1ccncc1)N1N=C(C2CCCCC2)CC1(O)C(F)(F)F (centres unmarked)	11%
CCOC(=O)Cc1cnc(N)s1	5.4%
Cc1cc(-c2nnc(SCc3cccnc3)o2)no1	3.04%
CNC(=S)N1CCN(c2ccc([N+](=O)[O-])cc2)CC1	-40.5%
COc1ccccc1-n1cc(C(=O)NCC(=O)N2CCN(c3ccccn3)CC2)c2ccccc2c1=O	-5.71%
Cc1cc(C)n(-c2cccc(CN3CCC(CO)(Cc4ccccc4)CC3)c2)n1	-5.38%
Cc1ccc(S(=O)(=O)NC(C)(C)CSc2ncccn2)cc1	10.8%
O=C(CNC(=O)c1ccco1)N=Nc1c(O)[nH]c2ccc([N+](=O)[O-])cc12	12.5%
CC(=O)Nc1ccc(S(=O)(=O)NCCC(=O)NNC(=O)c2ccncc2)cc1	8.41%
COc1ccc(/C=C/C(=O)O)cc1S(=O)(=O)NCc1ccco1	12.2%
CCN(CC)C(=O)c1ccc2c3c(cccc13)C(=O)N(CCc1ccc(OC)c(OC)c1)C2=O	-0.216%
Cc1ccc2c(c1)N(C(=O)CCC(=O)N1CCOCC1)CC(C)O2 (centres unmarked)	13.5%
Cc1ccc(S(=O)(=O)NCC(=O)NCC(=O)OC(C(=O)NC(N)=O)C(C)C)cc1C (centres unmarked)	13.7%
COc1ccc(Cl)cc1NC(=O)CCNC(=O)OCc1ccccc1	1.38%
CCOC(=O)CSc1nc2ccc(NC(=O)CSc3nnnn3Cc3ccccc3)cc2s1	16.7%
